In PMC12136788 one finds binding signal data, which are given here for 22 molecules.

T1: UNK ZnF1-6 (called full-length) (human, UniProt Q9C0B0 30-357)
T1 sequence: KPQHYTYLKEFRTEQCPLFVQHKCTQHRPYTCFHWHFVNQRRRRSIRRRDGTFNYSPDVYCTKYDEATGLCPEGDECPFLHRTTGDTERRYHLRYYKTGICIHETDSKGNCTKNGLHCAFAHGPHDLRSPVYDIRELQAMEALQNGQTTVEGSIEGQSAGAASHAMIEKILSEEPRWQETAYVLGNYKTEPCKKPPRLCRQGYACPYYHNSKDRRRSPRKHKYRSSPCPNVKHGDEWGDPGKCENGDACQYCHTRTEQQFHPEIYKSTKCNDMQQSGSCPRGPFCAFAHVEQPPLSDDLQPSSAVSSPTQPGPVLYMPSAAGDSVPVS

B1: ENSG00000198589:be:win_7901|CDS|ENSG00000198589|bound_else_gene|NA|bound_elsewhere_windowed (ssRNA)
RNA: GGGAGUUCUACAGUCCGACGAUCCUCGUUCUGAGUCAUAUAUUGGGGGAAAUUGCUACAUUCUCUCAGGGUCACGUGAUGCAACUCUUUUGCUGUGGUAUUGGAAUGGAAAAUGCAGUGGGAUUGGAGAUAACCCAGGCAGUGCAACAGAGGAUUGAGCAUCA
B2: chr11:102396659:102396760:-|3pUTR|ENSG00000152558|msi1_unk|FALSE|overlapping (ssRNA)
RNA: GGGAGUUCUACAGUCCGACGAUCCUUUUUCUCUGUAUGUAAGUAGUAUAAUUUGUUACUUUCAAAUACCCGUACUUUGAAUGUAGGUUUUUUUGUUGUUGUUAUCUAUAAAAAUUGAGGGAAAUGGUUAUGCAAAAAAAUAUUCAACAGAGGAUUGAGCAUCA
B3: chr17:28327902:28328001:+|3pUTR|ENSG00000109084|msi1_unk|total|mutant (ssRNA)
RNA: GGGAGUUCUACAGUCCGACGAUCUCCCUGUAUCUGAAGUCCCGCAUCUCAAGGCUGAUCUGGAAGUGUGCCCGUAUGCUCCCCCGUGGAUAACUUAAUCUUUUAAUACAGUUCCGUCAUUCCCAUCUUGUUUUCAGAAGAGAACAACAGAGGAUUGAGCAUCA
B4: chr8:103427116:103427218:+|CDS|ENSG00000164934|unk|total|mutant (ssRNA)
RNA: GGGAGUUCUACAGUCCGACGAUCGUAUACUGGGAUUGAUCAUCACUGGAAAGAAGCUGUUUUUGCCACAUGUGGACAGCAAGCCGACAUUUGGGAUGAACAAAGAACUAAUCCUAUAUGUUCAAUGACCUGGGGAUUUGACAGCAACAGAGGAUUGAGCAUCA
B5: chr17:41691520:41691533:+|3pUTR|ENSG00000173812|msi1_unk|total|mutant (ssRNA)
RNA: GGGAGUUCUACAGUCCGACGAUCGGAACAAAUCUCAAACUGAUCCAUCAGUCAUGCCGCCCGCUGCCGAGCUUGCAACUUAACCGCAGCAGCUGCCCAAUGCCAUGUGAAGUAACAAACUGGUUUUUGGUUUUUUUUUCCCCUCAACAGAGGAUUGAGCAUCA
B6: chr19:36514967:36515079:-|CDS|ENSG00000254004|unk|FALSE|unique (ssRNA)
RNA: GGGAGUUCUACAGUCCGACGAUCCAUGAAUGCACUGAAUGUGGUAAAGUGUGCUCUCGAGUCUCAUCUCUUACUCUACACCUUAGAAGUCACACAGGAAAGAAGGCAUAUAAAUGUAAUAAAUGUGGAAAAGCCUUCAGCCAGCAACAGAGGAUUGAGCAUCA
B7: chr13:109754583:109754684:-|3pUTR|ENSG00000185950|msi1|total|mutant (ssRNA)
RNA: GGGAGUUCUACAGUCCGACGAUCGAUCUCCCUGAACAUUUUUAAGGUUUUACUUUUCUGAAAUUAUACAUCACAGCAGUGCACCGGCCAUAUAAUGUCCGCUGGAAGGUCAAUUUCAGUGUAUGAUAUACUUUAUUAAGAUGUCAACAGAGGAUUGAGCAUCA
B8: chr16:2708819:2708933:+|3pUTR|ENSG00000167977|unk|FALSE|unique (ssRNA)
RNA: GGGAGUUCUACAGUCCGACGAUCCUCUCUGGGGAGCUGCUGGCCGCUUAGCGUUGUUUGAUUUUUGACCUUGACAUAGUAGAUAGGCUUGUGGUUUUUUUAAUUUAAAGAUAUUAAGACUUAAUUCACUAAAAUUUAUUCUAACAACAGAGGAUUGAGCAUCA
B9: chr11:57661263:57661364:+|CDS|ENSG00000172409|unk|FALSE|unique (ssRNA)
RNA: GGGAGUUCUACAGUCCGACGAUCCCACCUACUGAGUGUUAGCACUGCCGAGGGUACAGAGGAGAACCUGUCCGAGACAAGUGUAGCUGGCUUCAUUGUGGUGACCAGUGUGGACCUGGAGCAUCAGGUGUUUACUGUUCUGUCCAACAGAGGAUUGAGCAUCA
B10: chr11:64204363:64204470:+|3pUTR|ENSG00000168439|unk|FALSE|unique (ssRNA)
RNA: GGGAGUUCUACAGUCCGACGAUCGCCCUCGAGUUCCAUGUCUCUUUCCCCUGCCCCUAGUUGCUGUCUCGGCUGCUCUCCCAUAGUUGGUUUUUUUUUUAUUUGGGGCAGUGGGCAUGUUAUGGGGAGGGGAGGGGGUUCUUCCAACAGAGGAUUGAGCAUCA
B11: chr5:138934237:138934351:+|3pUTR|ENSG00000044115|msi1_unk|total|mutant (ssRNA)
RNA: GGGAGUUCUACAGUCCGACGAUCUUUCCAAGAACACCGUUUAAGUUGAUUAAAAAUGCUUUCCGAAUGCAGGAGCCUACUUCCCGCUGUAUUUUUUGUAUGCUUAAAUAAAAAUAAAAAUUCAUAACCAAAGAGAAUCCCACACAACAGAGGAUUGAGCAUCA
B12: chr17:68278117:68278284:-|CDS|ENSG00000108932|unk|total|mutant (ssRNA)
RNA: GGGAGUUCUACAGUCCGACGAUCGCUUUGUUCCAAAGCCAAUGUGUAUACUGAAGUGCCUGAUGGAGGAUGGGGCUGGGCGGCCGCUGUUUCAUUUUUCUUCGUUGAAGUCUUCACCUACGGCAUCAUCAAGACAUUUGGUGUCAACAGAGGAUUGAGCAUCA
B13: chr14:103503186:103503248:+|CDS_3pUTR|ENSG00000075413|msi1_unk|FALSE|overlapping (ssRNA)
RNA: GGGAGUUCUACAGUCCGACGAUCUGCUUCCAAAAUUGCCAAUGAGCUAAAGCUGUAACCCAGUGAUUAUGAUGUAAAUUAAGUAGCAAUUAAAGUGUUUUCCUGAACACUGAUGGAAAUGUAUAGAAUAAUAUUUAGGCAAUACAACAGAGGAUUGAGCAUCA
B14: chr15:44524374:44524475:+|3pUTR|ENSG00000137770|msi1|total|mutant (ssRNA)
RNA: GGGAGUUCUACAGUCCGACGAUCUAUCUAUCUCAGAUCGAAUACAUACCGCCGGCCGGCUAAAACAGAAGAGUCUUCCGAACCCGUGCAACUCCAGUGAAAUUUUUUAUGUACAGGACAUCUGCAGUUUAUAAAGAAUUCUGUCAACAGAGGAUUGAGCAUCA
B15: chr1:178479239:178479534:-|three_prime_utr|ENSG00000188585|control|control|control (ssRNA)
RNA: GGGAGUUCUACAGUCCGACGAUCCAGUUUCUGUUUCAUGCAAUCUUCUCUGGAUUUUGAGUAAAUUUUAAUUUUUUAAUCCCUAGUAGAACAAGAUUAGGAAGAACUCGACAUGUGCCAAAAAGCACAGACCUACAACUAACACAACAGAGGAUUGAGCAUCA
B16: chr10:92050442:92050545:-|3pUTR|ENSG00000107864|unk|FALSE|unique (ssRNA)
RNA: GGGAGUUCUACAGUCCGACGAUCAUGAAGGCCUGCUAGCACUAGCGUGGACAUUUUUCUAGCAUUCACCCUUGGGCUGCAGAUAGUAAUAUAUAAACACACACAAUGAUUGCAAGACUAUGUAAAUCUUUUUUUAAUCUUCUUCAACAGAGGAUUGAGCAUCA
B17: chr16:785952:786377:-|CDS|ENSG00000007376|control|control|control (ssRNA)
RNA: GGGAGUUCUACAGUCCGACGAUCCAGUCGCUGGACCAGCUCGUGCAGGCCUUACGGGCCACCCCCGACCCUGACCCCGAGGAUAGGGGCCCCAGGCCAGGCAGCCCCUCCGCACUCCUGCCUGGGCCCGGCCGGCCUCCUCCACAACAGAGGAUUGAGCAUCA
B18: chr3:75729960:75730612:-|three_prime_utr|ENSG00000227124|control|control|control (ssRNA)
RNA: GGGAGUUCUACAGUCCGACGAUCACUUCUGGCCAUCAUAUUGUUCUUUUAUUUUUCCAAAUUUCACAUCACCAGUAACAAACUAGCUGUGAUCAUGGCAGAUAGCCUGGAAAUAAAACUCCCCUUUUUACCCUUUGCACAGCACAACAGAGGAUUGAGCAUCA
B19: chr11:119045269:119045370:-|3pUTR|ENSG00000149428|msi1|FALSE|unique (ssRNA)
RNA: GGGAGUUCUACAGUCCGACGAUCUGUGGUUAAAAAUGGAAACUGUUCUCCUCCCCAGCCCCACUCCCUGUUCCCUACCCAUAUAGGCCCUAAAUUUGGGAAAAAUCACUAUUAAUUUCUGAAUCCUUUGCCUGUGGGUAGGAACAACAGAGGAUUGAGCAUCA
B20: chr7:151349087:151349194:+|CDS|ENSG00000013374|unk|total|mutant (ssRNA)
RNA: GGGAGUUCUACAGUCCGACGAUCCCUUGCUAAGCAGUACUCUGACAGACCCGAAUGCUGUGAAAAUGAAGCCGAAAAGGUAACCGAAGAAAUACGUUGCAAGGCAAUUGAGCGUGGAACAGGAAAUGACAAUUACCGAACAACCAACAGAGGAUUGAGCAUCA
B21: chr8:88032264:88032379:-|3pUTR|ENSG00000156103|unk|FALSE|bound_elsewhere (ssRNA)
RNA: GGGAGUUCUACAGUCCGACGAUCACUCCUUAUAAUGUUGCGUCAUUAAAGGUCAAGGGGUCAUGCUAUUAAUCUCAUUGCUAUAGACCAUUAACAUGACUGAACUUUUCCACAAAGUACUUAUGUUUACAAUGCUAUAACCCUCAACAGAGGAUUGAGCAUCA
B22: chr3:98797769:98798349:-|3pUTR|ENSG00000057019|msi1|FALSE|unique (ssRNA)
RNA: GGGAGUUCUACAGUCCGACGAUCUUGUUUUUGAUACCUCCUGGCAGCUUCCAUGUCACCACUUGUUCAUACCUGCCCAGAGCUAGUUUUAGACAUGGCAAAAUAGAAAUCAUCUGUAAUUUAUUAGCUAACAAUGUAAAACCACAACAGAGGAUUGAGCAUCA

This is one part of the list.

The target of the assay is T1, UNK ZnF1-6 (called full-length). The experiment in a line: nsRBNS (natural sequence RNA bind-n-seq); RBNS binding buffer (assumed for nsRBNS): 25 mM Tris pH 7.5, 150 mM KCl, 3 mM MgCl2, 0.01% Triton X-100, 500 ug/ml BSA, 20 U/ml SUPERase-In, 4 C; UNK is unkempt and MSI1 is Musashi-1; names of the RNAs are library labels; protein concentration not given here; high values mean tight binding.
For the molecule B1, the binding signal came out at 0.728 enrichment R.

B2: the binding signal came to 1.58 enrichment R.

Molecule B3 had a binding signal of 0.767 enrichment R.

On to B4, for which the binding signal came out at 0.51 enrichment R.

B5 returned a binding signal of 0.624 enrichment R.

For B6, the binding signal was determined as 0.418 enrichment R.

In the case of B7, the binding signal worked out at 0.699 enrichment R.

Regarding B8, the binding signal came to 14.8 enrichment R.

In the case of B9, the binding signal came to 0.603 enrichment R.

In turn, B10 yielded a binding signal of 20.5 enrichment R.

Molecule B11 registered a binding signal of 0.779 enrichment R.

B12: the binding signal worked out at 0.708 enrichment R.

As for B13, the binding signal worked out at 11.1 enrichment R.

On to B14, for which the binding signal was 0.524 enrichment R.

In the case of B15, the binding signal was determined as 0.449 enrichment R.

In the case of B16, the binding signal was 3.34 enrichment R.

Take B17: the binding signal is 0.526 enrichment R.

On to B18, for which the binding signal came out at 0.746 enrichment R.

As to B19, the binding signal came out at 0.528 enrichment R.

As for B20, the binding signal was determined as 0.354 enrichment R.

Molecule B21 registered a binding signal of 0.449 enrichment R.

In the case of B22, the binding signal was 4.74 enrichment R.
